Data: patent publication US11707511B2, “Vaccine compositions and methods of using the same” (The Board of Supervisors of Louisiana State University and …, priority 2017, dated 2023)
“Also recorded” adds a separate entry of the source.

Assays:
C. auris AR-0386 = assay: Passive transfer of mAbs or two mAbs in combination in A/J mouse model of invasive C. auris infection; type: in vivo, Candida auris
Description: A. Complement protein C5-defecient A/J mice were treated with one of the five mAb or with DPBS as a vehicle control. The following day, mice were challenged with 1×10^8 C. auris cells/100 ul DPBS dose per mouse. […] B. Fungal burdens in the kidneys (top), heard (center), and brain (bottom).
Identified protective mAbs were obtained by use of standard hybridoma technique and purified by use of protein A/G. A/J mice were given an i.p. dose of either single mAb or two mAbs in combination 24 hours before hematogensous challenge with a lethal dose (2×108) of C. auris AR-0386 live cells. Mice received either 9G2F5 alone or 6H1G8 alone or 9F2G5 and 3H7E3 in combination had 40% survival rate respectively, with prolonged survival as compared to control animals that received DPBS buffer control.
Evaluation and validation of a panel of peptide-specific monoclonal antibodies (mAbs) as a passive immunization strategy protect against invasive C. auris infection in established A/J mouse model of human disease.
The monoclonal antibodies used in this experiment were: • 6H1G8 (IgG2b), α-Hwp1 (Hyphal wall protein) • 3E2G2 (IgG2b), α-Fba (Fructose bisphosphate aldolase) • 10E7E2 (IgG1), α-GPV-P3 (General peptide vaccine 3 from Phosphoglycerate kinase) • 9F2G5 (IgG2a), α-Pgk1 (Phosphoglycerate kinase) • 3H7E3 (IgG1), α-Met6 (Methyltetrahydropteroyltriglutamate)

C. auris = assay: mAb 9F2G5 alone or with antifungal drug in A/J mice with C. auris disseminated candidiasis; type: in vivo, Candida auris; settings: FIG. 18
Description: Method and Material to determine if mAb 9F2G5 (α-Pgk1, IgG2a) can increase antifungal efficacy in A/J mice.
Experimental Groups (Three Mice/Group): • 1. DPBS • 2. Micafungin (0.25 mg/kg/day) • 3. Micafungin (0.5 mg/kg/day) • 4. Micafungin (1.0 mg/kg/day) • 5. 9F2G5 • 6. 9F2G5+Micafungin (0.25 mg/kg/day) • 7. 9F2G5+Micafungin (0.5 mg/kg/day) • 8. 9F2G5+Micafungin (1.0 mg/kg/day) • 9. Fluconazole (25 mg/kg/day) • 10. 9F2G5+Fluconazole (25 mg/kg/day)
Referring to FIG. 18, mAb 9F2G5 used alone or with antifungal drug has therapeutic activity against C. auris disseminated candidiasis.

B1: 9F2G5: mAb 9F2G5 (IgG2a), α-Pgk1 (Phosphoglycerate kinase) peptide (antibody)
heavy: EVHLQQSGPELVKPGASVKISCKTSGYIFTEYTMHWVKQSHGKSLEWIGGINPNNGGTRYNQKFKGKATLTVDKSSSTAYMELRSLTSEDSAVYYCAWYFPYWGQGTLVTVSAAKTTAPSVYPLAPVCGDTTGSSVTLGCLVKGYFPEPVTLTWNSGSLSSGVHTFPAVLQSDLYTLSSSVTVTSSTWPSQSITCNVAHPASSTKVDKKIEPRGPTIKPCPPCKCPAPNLLGGPSVFIFPPKIKDVLMISLSPIVTCVVVDVSEDDPDVQISWFVNNVEVHTAQTQTHREDYNSTLRVVSALPIQHQDWMSGKEFKCKVNNKDLPAPIERTISKPKGSVRAPQVYVLPPPEEEMTKKQVTLTCMVTDFMPEDIYVEWTNNGKTELNYKNTEPVLDSDGSYFMYSKLRVEKKNWVERNSYSCSVVHEGLHNHHTTKSFSRTPGK
light: [gap - about 200 residues]
- fungal burdens in targeted organs (C. auris AR-0386; A/J mouse model, in words): lowest fungal burdens in all organs; also recorded: able to almost clear fungal burden
- protection against C. auris invasive infection (C. auris AR-0386; A/J mouse model, in words): protect against C. auris invasive infection; also recorded: best protection
- survival (C. auris AR-0386; FIG. 15A, A/J mice, 1×10^8 C. auris cells, experiment terminated 40 days post challenge): 50%
- fungal burden in the heart and brain (C. auris AR-0386; FIG. 15B, several mice): non-detectible levels of fungal burden
- survival rate (C. auris AR-0386; FIG. 16, A/J mice, mAb(s) i.p. 24 hours before lethal dose (2×108) of C. auris AR-0386): 40%
- protection as compared to Micafungin alone (C. auris; A/J mice): improved immunoprotection; also recorded: better protection
- fungal burdens (CFUs) in kidney and heart compared to Micafungin alone (C. auris; day 4 post-infection, 9F2G5 i.p. 24 hours before challenge, Micafungin i.p. 24 h post-infection): reduced fungal burdens
